Experimental data published in PubChem BioAssay AID624170 (National Center for Advancing Translational Sciences (NCATS), 2012).
In all, about 410,000 compounds went through this assay and about 850 (0.21%) were called active. Inconclusive means that the source gave no clear call. Such entries were picked first, then a sample of the others. Calls follow the shape of the dose curve; as a rule, active = well fitted inhibition curve with a large enough effect; inconclusive = small, poorly fitted or top-dose-only effect, or another doubt; inactive = no such curve, though single readings can be large or run the other way. Where the call is inconclusive, the potency comes from a doubtful curve fit.

What follows are compounds tested against Glutaminase kidney isoform, mitochondrial (Homo sapiens) (UniProt O94925) (assay: qHTS for Inhibitors of Glutaminase (GLS)). Conditions: GLS enzymatic activity, qHTS titration; series mostly up to 45.5 µM.
Sequence of UniProt O94925 (O94925 whole entry, looked up, canonical isoform): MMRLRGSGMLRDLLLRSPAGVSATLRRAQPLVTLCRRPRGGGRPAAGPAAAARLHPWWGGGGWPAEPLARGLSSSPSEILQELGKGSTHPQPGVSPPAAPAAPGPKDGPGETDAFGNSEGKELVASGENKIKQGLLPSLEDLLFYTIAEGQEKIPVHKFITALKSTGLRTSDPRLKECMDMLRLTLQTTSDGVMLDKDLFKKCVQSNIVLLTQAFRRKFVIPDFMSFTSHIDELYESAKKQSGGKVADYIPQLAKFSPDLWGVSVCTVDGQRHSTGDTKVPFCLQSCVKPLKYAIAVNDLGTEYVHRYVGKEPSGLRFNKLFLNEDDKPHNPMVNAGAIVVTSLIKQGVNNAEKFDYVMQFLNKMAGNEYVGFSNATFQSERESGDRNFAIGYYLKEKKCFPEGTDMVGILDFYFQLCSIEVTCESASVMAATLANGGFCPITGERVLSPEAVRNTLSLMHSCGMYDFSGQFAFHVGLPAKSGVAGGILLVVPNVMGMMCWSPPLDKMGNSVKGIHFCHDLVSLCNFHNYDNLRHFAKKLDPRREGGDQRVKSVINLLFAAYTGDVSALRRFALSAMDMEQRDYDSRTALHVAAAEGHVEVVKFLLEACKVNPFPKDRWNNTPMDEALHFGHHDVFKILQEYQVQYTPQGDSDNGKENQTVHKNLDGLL
In short: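 Two-point fluorescence kinetic (t0, 30 min RT) for hKGA; glutamate detected via glutamate oxidase–HRP–Amplex Red. Substrate: 1 mM L-glutamine solution; buffer 45 mM KH2PO4, pH 8.2.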
Potency is read from the fitted curve at half-maximal effect; tags tell the direction and shape of the fitted curve.

Potency, inconclusive:
Cc1ccc(-c2nn(-c3cc(N4CCNCC4)ccc3[N+](=O)[O-])c(=O)c3ccccc23)cc1 20 µM [inhibitor, single point]
Cc1ccc(S(=O)(=O)NNC(=O)c2sc(NS(=O)(=O)c3ccccc3)nc2C)cc1 25.1 µM [inhibitor, single point]
Cc1cccc(NC(=O)c2cc([N+](=O)[O-])ccc2Cl)c1O 11.2 µM [inhibitor, partial curve]
Oc1cc(O)cc(/C=C/c2ccc(O)c(O)c2)c1 35.5 µM [inhibitor, single point]
O=C(COc1ccc(Cl)cc1Cl)Nc1ccc(C(=O)Nc2ccccc2C(=O)O)cc1 15.8 µM [inhibitor, single point]
O=C(O)Cc1sc(Nc2cccc3ccccc23)nc1-c1ccc(Cl)cc1 8.91 µM [inhibitor, partial curve, poor fit]
O=C1CCCc2oc3ccc(NS(=O)(=O)c4cccc5cccnc45)cc3c21 25.1 µM [inhibitor, single point]
Cc1ccccc1NS(=O)(=O)c1ccc2[nH]cc(C(=O)NCCc3ccccc3)c(=O)c2c1 25.1 µM [inhibitor, partial curve, poor fit]
COC(=O)c1ccc(CCc2cc(O)ccc2O)cc1 35.5 µM [inhibitor, single point]
N#CC1=C(N)Oc2c(ccc3ccccc23)C1c1ccsc1 (stereo not given) 35.5 µM [inhibitor, single point]
Cc1nnc(N/N=C/c2ccc([N+](=O)[O-])cc2)n1N 7.94 µM [inhibitor, partial curve]
CC(C)(CCC(=S)N1CCOCC1)C1CCCCC1 31.6 µM [inhibitor, single point]
COc1ccccc1/C=C/C=N/n1c(-c2n[nH]c3c2CCC3)n[nH]c1=S 7.94 µM [inhibitor, partial curve, poor fit]
Cc1cc2nc(C)c(=O)n(C)c2cc1C 28.2 µM [inhibitor, single point]
Cc1ccc(C(=O)Nc2ccc(Nc3ccccc3)cc2)c(Cl)c1 15.8 µM [inhibitor, partial curve, poor fit]
Cc1nc(C(=O)NNC(=O)c2cccc(Cl)c2)c(C(F)(F)F)o1 15.8 µM [inhibitor, partial curve, poor fit]
CCCCCCOc1ccc(-c2ccc(C#N)cn2)cc1 35.5 µM [inhibitor, single point]
COc1ccc(C(=O)C2CCCN(Cc3cc(C)c(O)c(C)c3)C2)c(OC)c1 (stereo not given) 14.1 µM [inhibitor, single point]
CCCCC(CC)CNC(=O)CC1Nc2c3ccccc3nc(=S)n2C1=O (stereo not given) 15.8 µM [inhibitor, single point]
C/C(=N\Nc1ccc(F)cc1F)c1ccccc1O 14.1 µM [inhibitor, partial curve, poor fit]
CCCOc1ccc(CSc2ncn[nH]2)cc1 35.5 µM [inhibitor, single point]
FC(F)(F)c1ccccc1Cc1c(-c2ccco2)nc2ccc(Br)cn12 28.2 µM [inhibitor, single point]
CCOC(=O)C1CCN(C(=O)COc2ccc(C(=O)c3ccccc3)cc2)CC1 35.5 µM [inhibitor, partial curve, poor fit]
CCc1ccc(NS(=O)(=O)c2[nH]ncc2C(=O)OC)cc1 7.08 µM [inhibitor, full curve]
CC(=O)Nc1sc(NC(=O)c2ccc(Cl)cc2)nc1-c1cccs1 20 µM [inhibitor, single point]
Cc1sc2nc3c(SC(C)C(=O)O)cc(C(=O)c4ccccc4O)cn3c(=O)c2c1C (stereo not given) 22.4 µM [inhibitor, single point]
COc1ccc(-n2c(=S)[nH]c3sc(-c4ccccc4)cc3c2=O)c(OC)c1 22.4 µM [inhibitor, single point]
CC1(C)CN=C(NC2CCCCC2)S1 2 µM [inhibitor, partial curve]
CC(C)(C)N1C(=O)c2ccc(C(=O)Nc3ccc(O)cc3)cc2C1=O 11.2 µM [inhibitor, partial curve]
COc1cc(OC)c(NC(=O)CCNC(=O)Cn2cnc3ccccc3c2=O)cc1Cl 25.1 µM [inhibitor, single point]
CCCCc1c(-c2ccccc2OC)ncn1Cc1cccc(-c2ccccc2)c1 0.282 µM [inhibitor, full curve, poor fit]
Cc1ccc(Nc2ccc(C(=O)O)cc2N)cc1 35.5 µM [inhibitor, partial curve, poor fit]

Potency, active:
O=C(/C=C/c1cccs1)N1CCN(c2ccc(O)cc2)CC1 7.08 µM
NC(=S)NNc1ccnc2cc(Cl)ccc12 6.31 µM

Potency, inactive:
CCCOc1ccc(Cc2nn[nH]n2)cc1
c1csc(CSc2nnc3sc4ccccc4n23)c1
O=C(CSc1nc2ccccc2c(=O)[nH]1)N1CCN(S(=O)(=O)c2ccccc2)CC1
COc1ccc(OCc2nn3c(-c4ccco4)nnc3s2)cc1
O=C(CCN1CCCC1)c1cccs1
Cc1cccc(S(=O)(=O)NNC(=O)c2cc(-c3ccc(F)cc3)nc3ccccc23)c1
CCC(C)NC(=O)c1cc(-c2ccc3c(c2)OCO3)on1 (stereo not given)
Cc1c(S(=O)(=O)c2ccccn2)c(N)n(Cc2ccccc2)c1C
Cc1ccccc1NC(=O)c1sc2nc3c(cc2c1N)CN(Cc1ccccc1)CC3
Cc1ccc2nc(NC(=O)CSc3nccn3Cc3ccc(F)cc3)sc2c1
CC(C)c1nnc(SCC(=O)N2CCc3ccccc32)n1N
